# Test results taken from the supplement of paper PMC8728848.
# This is one part of the list.
# How the values were obtained:
# Assay in all cases: glycan array binding signal (z-score within array); higher = stronger binding
# Conditions in all cases: glycan notation: IUPAC condensed, linker removed
# [1] = target: Neu5Ac(a2-3)Gal(b1-4)[Fuc(a1-3)]GlcNAc(b1-6)[Neu5Ac(a2-3)Gal(b1-3)]GalNAc
# Method in brief: (§1)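 From the Consortium for Functional Glycomics database, 3228 arrays were curated, keeping only those whose protein sequence was available. Binding is given as a within-array Z-score averaged across arrays sharing a protein sequence and across linkers. Negative Z-scores can be read as non-binding.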
# [2] = target: Neu5Ac(a2-3)Gal(b1-4)[Fuc(a1-3)]GlcNAc6S
# Method in brief: as §1
# [3] = target: Neu5Ac(a2-3)Gal6S(b1-4)GlcNAc
# Method in brief: as §1
# [4] = target: Neu5Ac(a2-3)Gal6S(b1-4)[Fuc(a1-3)]GlcNAc
# Method in brief: as §1
# Neu5Ac(a2-3)GalNAc = target: Neu5Ac(a2-3)GalNAc
# Method in brief: as §1
# [5] = target: Neu5Ac(a2-3)GalNAc(b1-4)GlcNAc
# Method in brief: as §1
# [6] = target: Neu5Ac(a2-3)[GalNAc(b1-4)]Gal(b1-4)Glc
# Method in brief: as §1
# [7] = target: Neu5Ac(a2-3)[GalNAc(b1-4)]Gal(b1-4)GlcNAc
# Method in brief: as §1
# [8] = target: Neu5Ac(a2-3)[GalNAc(b1-4)]Gal(b1-4)GlcNAc(b1-3)GalNAc
# Method in brief: as §1
# [9] = target: Neu5Ac(a2-3)[Neu5Ac(a2-6)]GalNAc
# Method in brief: as §1
# Neu5Ac(a2-6)Gal = target: Neu5Ac(a2-6)Gal
# Method in brief: as §1
# [10] = target: Neu5Ac(a2-6)Gal(b1-3)GlcNAc(b1-3)[Gal(b1-4)GlcNAc(b1-6)]Gal(b1-4)Glc
# Method in brief: as §1
# Neu5Ac(a2-6)Gal(b1-4)Glc = target: Neu5Ac(a2-6)Gal(b1-4)Glc
# Method in brief: as §1
# [11] = target: Neu5Ac(a2-6)Gal(b1-4)GlcNAc
# Method in brief: as §1
# [12] = target: Neu5Ac(a2-6)Gal(b1-4)GlcNAc(b1-2)Man
# Method in brief: as §1
# [13] = target: Neu5Ac(a2-6)Gal(b1-4)GlcNAc(b1-2)Man(a1-3)Man(b1-4)GlcNAc(b1-4)GlcNAc
# Method in brief: as §1
# [14] = target: Neu5Ac(a2-6)Gal(b1-4)GlcNAc(b1-2)Man(a1-3)[Gal(b1-4)GlcNAc(b1-2)Man(a1-6)]Man(b1-4)GlcNAc(b1-4)GlcNAc
# Method in brief: as §1
# [15] = target: Neu5Ac(a2-6)Gal(b1-4)GlcNAc(b1-2)Man(a1-3)[GlcNAc(b1-2)Man(a1-6)]Man(b1-4)GlcNAc(b1-4)GlcNAc
# Method in brief: as §1
# [16] = target: Neu5Ac(a2-6)Gal(b1-4)GlcNAc(b1-2)Man(a1-3)[GlcNAc(b1-4)][Neu5Ac(a2-6)Gal(b1-4)GlcNAc(b1-2)Man(a1-6)]Man(b1-4)GlcNAc(b1-4)GlcNAc
# Method in brief: as §1
# [17] = target: Neu5Ac(a2-6)Gal(b1-4)GlcNAc(b1-2)Man(a1-3)[Man(a1-6)]Man(b1-4)GlcNAc(b1-4)GlcNAc
# Method in brief: as §1
# [18] = target: Neu5Ac(a2-6)Gal(b1-4)GlcNAc(b1-2)Man(a1-3)[Neu5Ac(a2-3)Gal(b1-4)GlcNAc(b1-2)Man(a1-6)]Man(b1-4)GlcNAc(b1-4)GlcNAc
# Method in brief: as §1
# [19] = target: Neu5Ac(a2-6)Gal(b1-4)GlcNAc(b1-2)Man(a1-3)[Neu5Ac(a2-6)Gal(b1-4)GlcNAc(b1-2)Man(a1-6)]Man(b1-4)GlcNAc(b1-4)GlcNAc
# Method in brief: as §1
# [20] = target: Neu5Ac(a2-6)Gal(b1-4)GlcNAc(b1-2)Man(a1-3)[Neu5Ac(a2-6)Gal(b1-4)GlcNAc(b1-2)Man(a1-6)]Man(b1-4)GlcNAc(b1-4)[Fuc(a1-6)]GlcNAc
# Method in brief: as §1
# [21] = target: Neu5Ac(a2-6)Gal(b1-4)GlcNAc(b1-2)Man(a1-6)Man(b1-4)GlcNAc(b1-4)GlcNAc
# Method in brief: as §1
# [22] = target: Neu5Ac(a2-6)Gal(b1-4)GlcNAc(b1-2)Man(a1-6)[Gal(b1-4)GlcNAc(b1-2)Man(a1-3)]Man(b1-4)GlcNAc(b1-4)GlcNAc
# Method in brief: as §1
# [23] = target: Neu5Ac(a2-6)Gal(b1-4)GlcNAc(b1-2)Man(a1-6)[GlcNAc(b1-2)Man(a1-3)]Man(b1-4)GlcNAc(b1-4)GlcNAc
# Method in brief: as §1
# [24] = target: Neu5Ac(a2-6)Gal(b1-4)GlcNAc(b1-2)Man(a1-6)[Man(a1-3)]Man(b1-4)GlcNAc(b1-4)GlcNAc
# Method in brief: as §1
# [25] = target: Neu5Ac(a2-6)Gal(b1-4)GlcNAc(b1-2)[Neu5Ac(a2-6)Gal(b1-4)GlcNAc(b1-4)]Man(a1-3)[GlcNAc(b1-4)][Neu5Ac(a2-6)Gal(b1-4)GlcNAc(b1-2)[Neu5Ac(a2-6)Gal(b1-4)GlcNAc(b1-6)]Man(a1-6)]Man(b1-4)GlcNAc(b1-4)GlcNAc
# Method in brief: as §1
# [26] = target: Neu5Ac(a2-6)Gal(b1-4)GlcNAc(b1-2)[Neu5Ac(a2-6)Gal(b1-4)GlcNAc(b1-4)]Man(a1-3)[GlcNAc(b1-4)][Neu5Ac(a2-6)Gal(b1-4)GlcNAc(b1-4)Man(a1-6)]Man(b1-4)GlcNAc(b1-4)GlcNAc
# Method in brief: as §1
# [27] = target: Neu5Ac(a2-6)Gal(b1-4)GlcNAc(b1-2)[Neu5Ac(a2-6)Gal(b1-4)GlcNAc(b1-6)]Man(a1-6)[Neu5Ac(a2-6)Gal(b1-4)GlcNAc(b1-2)Man(a1-3)][GlcNAc(b1-4)]Man(b1-4)GlcNAc(b1-4)GlcNAc
# Method in brief: as §1
# [28] = target: Neu5Ac(a2-6)Gal(b1-4)GlcNAc(b1-3)Gal(b1-3)GlcNAc
# Method in brief: as §1
# [29] = target: Neu5Ac(a2-6)Gal(b1-4)GlcNAc(b1-3)Gal(b1-4)GlcNAc
# Method in brief: as §1
# [30] = target: Neu5Ac(a2-6)Gal(b1-4)GlcNAc(b1-3)Gal(b1-4)GlcNAc(b1-2)Man(a1-3)[Neu5Ac(a2-6)Gal(b1-4)GlcNAc(b1-3)Gal(b1-4)GlcNAc(b1-2)Man(a1-6)]GalNAc
# Method in brief: as §1
# [31] = target: Neu5Ac(a2-6)Gal(b1-4)GlcNAc(b1-3)Gal(b1-4)GlcNAc(b1-3)Gal(b1-4)GlcNAc
# Method in brief: as §1
# [32] = target: Neu5Ac(a2-6)Gal(b1-4)GlcNAc(b1-3)Gal(b1-4)GlcNAc(b1-3)Gal(b1-4)GlcNAc(b1-2)Man(a1-3)[Neu5Ac(a2-6)Gal(b1-4)GlcNAc(b1-3)Gal(b1-4)GlcNAc(b1-3)Gal(b1-4)GlcNAc(b1-2)Man(a1-6)]GalNAc
# Method in brief: as §1
# [33] = target: Neu5Ac(a2-6)Gal(b1-4)GlcNAc(b1-3)Gal(b1-4)GlcNAc(b1-3)GalNAc
# Method in brief: as §1
# [34] = target: Neu5Ac(a2-6)Gal(b1-4)GlcNAc(b1-3)Gal(b1-4)GlcNAc(b1-3)[Neu5Ac(a2-6)Gal(b1-4)GlcNAc(b1-3)Gal(b1-4)GlcNAc(b1-6)]GalNAc
# Method in brief: as §1
# [35] = target: Neu5Ac(a2-6)Gal(b1-4)GlcNAc(b1-3)Gal(b1-4)GlcNAc(b1-6)[Gal(b1-3)]GalNAc
# Method in brief: as §1
binder,measurement,setting,value
DBA (Dolichos biflorus) (protein) ANIQSFSFKNFNSPSFILQGDATVSSGKLQLTKVKENGFPLRFPSGRAFYSSPIQIYDKFTGAVASWATSFTVKISAPSKASFADGIAFALVPVGSEPRRNGGYLGVFDSDVYNNSAQTVAVEFDTLSNSGWDPSMKHIGIDVNSIKSIATVSWDLANGENAEILITYNAATSLLVVSLVHPSRRTSYILSERVDITNELPEYVGVGFSATTGLSEGYIETHDVLSWSFASRLPDDSTAEPLDLARYLVRNVL,glycan array binding signal (z-score),[1],0.124
same,glycan array binding signal (z-score),[2],-0.112
same,glycan array binding signal (z-score),[3],-0.135
same,glycan array binding signal (z-score),[4],-0.13
same,glycan array binding signal (z-score),Neu5Ac(a2-3)GalNAc,-0.165
same,glycan array binding signal (z-score),[5],-0.125
same,glycan array binding signal (z-score),[6],4.19
same,glycan array binding signal (z-score),[7],3.09
same,glycan array binding signal (z-score),[8],0.136
same,glycan array binding signal (z-score),[9],-0.163
same,glycan array binding signal (z-score),Neu5Ac(a2-6)Gal,-0.14
same,glycan array binding signal (z-score),[10],-0.106
same,glycan array binding signal (z-score),Neu5Ac(a2-6)Gal(b1-4)Glc,-0.09
same,glycan array binding signal (z-score),[11],-0.103
same,glycan array binding signal (z-score),[12],-0.127
same,glycan array binding signal (z-score),[13],-0.098
same,glycan array binding signal (z-score),[14],-0.116
same,glycan array binding signal (z-score),[15],-0.171
same,glycan array binding signal (z-score),[16],-0.164
same,glycan array binding signal (z-score),[17],-0.136
same,glycan array binding signal (z-score),[18],-0.131
same,glycan array binding signal (z-score),[19],-0.122
same,glycan array binding signal (z-score),[20],0.039
same,glycan array binding signal (z-score),[21],-0.188
same,glycan array binding signal (z-score),[22],-0.144
same,glycan array binding signal (z-score),[23],-0.094
same,glycan array binding signal (z-score),[24],-0.14
same,glycan array binding signal (z-score),[25],-0.046
same,glycan array binding signal (z-score),[26],-0.063
same,glycan array binding signal (z-score),[27],-0.191
same,glycan array binding signal (z-score),[28],-0.136
same,glycan array binding signal (z-score),[29],-0.12
same,glycan array binding signal (z-score),[30],-0.007
same,glycan array binding signal (z-score),[31],-0.1
same,glycan array binding signal (z-score),[32],0.11
same,glycan array binding signal (z-score),[33],-0.08
same,glycan array binding signal (z-score),[34],0.109
same,glycan array binding signal (z-score),[35],-0.032
